# From PubChem BioAssay (NCATS)
# Several values for one entry are separate records, joined by “and”; a condition that tells them apart may be missing. Equal entries are not always repeated. Inconclusive results, whose numbers are uncertain, are shown with a selection of clear calls. For part of these data: Potencies beside an inconclusive call are fits to weak or partial responses and may not hold up. Activity calls are given as the source filed them. Unless noted, the call rests on the fitted dose curve; in most records, active means well fitted curve in either direction with a large enough effect (not every such curve was filed as active); inconclusive means small, poorly fitted or top-dose-only effect, or another doubt; inactive means flat fitted curve, though single readings scatter.
# What was measured:
# [1] = AP1 Signaling Pathway (AID 357); details: ME-180 AP-1-bla reporter, EGF-induced, beta-lactamase ratio, 5 h;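 further: ME-180 reporter cells stimulated with EGF at its EC50 level; top concentration of the series differs between compounds; on the % scale 0 is the no-effect control and ±100 the full control effect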
# Method in brief: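 Read-out was the 460nm/530nm emission ratio (excitation 405nm) after CCF4 loading for 2.5 hours at room temperature. Cells carried an AP-1-driven beta-lactamase reporter, were stimulated with EC50 EGF plus compound for 5 hours, and AC50 values came from titrations.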
# [2] = NFAT Signaling Pathway (AID 444); details: Jurkat NFAT-bla M1, carbachol, beta-lactamase ratio, 5 h;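 further: carbachol stimulus at about its EC50 of 1 µM final; on the % scale 0 is the no-effect control and ±100 the full control effect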
# Method in brief: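 Jurkat cells carrying an NFAT-driven β-lactamase reporter and co-transfected muscarinic M1 receptor were treated with compound plus carbachol (1 uM final, an EC50 level) for 5 h at 37 °C. CCF4 loading followed for 1 h at RT; 460/530 nm ratio gave %activity.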
# [3] = Stat Signaling Pathway (AID 446); details: ME-180 SIE beta-lactamase reporter, IL-6 stimulated, 5 h; at 17.2 µM (top of the series) unless noted;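 further: ME-180 cervical cancer cells given 40 pM IL-6 alongside compound; SIE-controlled beta-lactamase reporter measured as 460/530 nm FRET emission ratio; top concentration of the series differs between compounds; on the % scale 0 is the no-effect control and ±100 the full control effect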
# Method in brief: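 ME-180 SIE-bla cells; overnight plating; cpd + IL-6 40 pM, 5 h, 37 C; LiveBLAzer 2.5 h RT; 460/530 nm emission ratio. Normalized to 300 pM IL-6 and 125 nM JAK inhibitor controls.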
# [4] = molecular target: Cytochrome P450 1A2 (Homo sapiens) (UniProt P05177); assay: p450-cyp1a2 (AID 410; calls by dose curve;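 further: top concentration of the series differs between compounds; -100% = full effect of reference inhibitor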); details: recombinant CYP1A2, luciferin-ME demethylation, luminescence
# Chain of UniProt P05177 (P05177 whole entry, looked up): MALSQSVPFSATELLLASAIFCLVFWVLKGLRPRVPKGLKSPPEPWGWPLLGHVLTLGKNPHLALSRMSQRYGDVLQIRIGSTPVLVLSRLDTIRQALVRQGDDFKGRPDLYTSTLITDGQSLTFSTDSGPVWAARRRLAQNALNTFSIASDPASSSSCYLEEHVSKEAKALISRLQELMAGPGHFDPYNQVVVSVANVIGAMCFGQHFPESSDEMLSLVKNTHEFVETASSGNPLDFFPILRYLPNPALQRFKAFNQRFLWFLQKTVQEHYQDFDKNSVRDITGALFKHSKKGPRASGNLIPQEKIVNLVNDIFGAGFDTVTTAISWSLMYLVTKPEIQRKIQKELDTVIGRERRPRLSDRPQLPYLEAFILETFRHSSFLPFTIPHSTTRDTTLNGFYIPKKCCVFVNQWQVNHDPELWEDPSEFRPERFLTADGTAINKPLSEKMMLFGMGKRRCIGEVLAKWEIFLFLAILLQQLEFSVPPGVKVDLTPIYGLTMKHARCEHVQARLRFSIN
# Method in brief: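 Inhibition was calculated relative to 57 uM furafylline (full inhibition). The reaction used human CYP1A2 at 20nM with Luciferin-ME at its Km, 100uM, driven by an NADPH-regenerating system for 60 min at room temperature.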
# [5] = Cell Viability - BJ (AID 421; calls by dose curve;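 further: potency means the concentration at half of the fitted maximal effect; cells exposed to compound for 40 hours at 37 °C before readout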); details: BJ fibroblast viability, qHTS
# Method in brief: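 Luminescent ATP signal (CellTiter-Glo, 20 min at room temperature) served as the read-out of viable BJ cells after 40 hours of compound treatment. Responses were scaled between DMSO and 100 uM tamoxifen, and AC50 values were obtained by Hill modeling.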
# [6] = Cell Viability - Jurkat (AID 426;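 active means dose-dependent loss of cell ATP signal giving a full or clear fitted curve, ranked by lower potency value; inconclusive means weak partial curve or response only at the top dose; inactive means no loss of viability signal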;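 further: potency means the concentration at half of the fitted maximal effect; cells exposed to compound for 40 hours at 37 °C before ATP read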); details: qHTS
# Method in brief: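 Seed 5000 Jurkat E6-1 cells/well; add compound; incubate 40 hr at 37 °C; add CellTiter-Glo; wait 20 min at room temperature; read luminescence. Fit concentration-response with Hill equation for AC50.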
# [7] = Cell Viability - Hek293 (AID 427;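 active means compounds whose dose-response curve shows a full or clear partial loss of cell viability, called from curve shape rather than a numeric limit; inconclusive means weak partial curves or an effect only at the top dose; inactive means no dose-dependent loss of viability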;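 further: potency means the concentration at half of the fitted maximal effect; cells exposed to compound for 40 hours at 37 °C before reading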); details: qHTS
# Method in brief: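 Luminescent ATP read-out (CellTiter-Glo, 20 min RT) after 40 hr compound exposure at 37 °C in complete medium. Signal normalized to DMSO (basal) and 100 uM tamoxifen (100% inhibition); concentration-response fitted with the standard Hill equation to give AC50.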
# [8] = Cell Viability - HepG2 (AID 433; calls by dose curve;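 further: potency means the concentration at half of the fitted maximal effect; potency for ATP loss meaning cytotoxicity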); details: qHTS
# Method in brief: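 Cytotoxicity is scored as loss of intracellular ATP in HepG2 cells exposed to compounds for 40 h. Concentration-response curves, normalized to DMSO and 100 uM tamoxifen, give AC50 values.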
# Tags describe the fitted curve by direction and shape.
smiles,measurement,setting,value
CSc1ccc2c(c1)N(CCC1CCCCN1C)c1ccccc1S2 (centres undefined),"activity change, negative = inhibition",[1]; at 17.2 µM (top of the series),inconclusive: 41.8% [activator]
same,"activity change, negative = inhibition",[2]; at 17.2 µM (top of the series),active: -83%
same,"activity, negative = inhibition",[3],inconclusive: -38.3% [inhibitor]
NNCCc1ccccc1,"activity change, negative = inhibition",[1]; at 17.2 µM (top of the series),inactive: -1.06%
same,"activity change, negative = inhibition",[1]; at 38 µM (top of the series),inactive: 26%
same,"activity, negative = inhibition",[3],inconclusive: 57.2% [activator] [at 38 µM]
NS(=O)(=O)Cc1noc2ccccc12,"activity change, negative = inhibition",[1]; at 38 µM (top of the series),inactive: -4.5%
CC[N+](CC)(CCNC(=O)C(=O)NCC[N+](CC)(CC)Cc1ccccc1Cl)Cc1ccccc1Cl,Potency,[4],inactive
COc1cc2ncnc(Nc3cccc(Cl)c3)c2cc1OC,"activity change, negative = inhibition",[1]; at 38 µM (top of the series),active: -106%
same,"activity, negative = inhibition",[3],inconclusive: 19.4% [activator] [at 38 µM]
Oc1c(I)cc(Cl)c2cccnc12,"activity change, negative = inhibition",[1]; at 17.2 µM (top of the series),inconclusive: 31.3% [activator]
same,Potency,[5],inconclusive: 98.3 µM [single point]
same,Potency,[6],inconclusive: 42.5 µM [partial curve]
same,Potency,[7],inconclusive: 49.8 µM [partial curve]
same,Potency,[8],inconclusive: 101 µM [partial curve]
same,"activity change, negative = inhibition",[2]; at 17.2 µM (top of the series),inconclusive: -79.1% [inhibitor] and inconclusive: -75.6% [inhibitor]
same,"activity, negative = inhibition",[3],inconclusive: -65.1% [inhibitor] and inconclusive: -38.9% [inhibitor]
NC(=O)NO,"activity change, negative = inhibition",[1]; at 38 µM (top of the series),inactive: 6.42%
CC(=O)N(O)CCCCCNC(=O)CCC(=O)N(O)CCCCCNC(=O)CCC(=O)N(O)CCCCCN,"activity change, negative = inhibition",[1]; at 17.2 µM (top of the series),inactive: -6.04%
same,Potency,[4],inactive
CCC(=O)c1ccc2c(c1)N(CCCN(C)C)c1ccccc1S2,"activity change, negative = inhibition",[1]; at 38 µM (top of the series),inconclusive: 35.3% [activator]
same,"activity change, negative = inhibition",[2]; at 38 µM (top of the series),active: -89.3%
CN(C)CCCN1c2ccccc2Sc2ccc(Cl)cc21,"activity change, negative = inhibition",[1]; at 17.2 µM (top of the series),inconclusive: 45.3% [activator] and inconclusive: 43.1% [activator]
same,"activity change, negative = inhibition",[1]; at 38 µM (top of the series),inconclusive: 62% [activator]
same,"activity change, negative = inhibition",[2]; at 17.2 µM (top of the series),inconclusive: -51.7% [inhibitor] and active: -73.6%
same,"activity change, negative = inhibition",[2]; at 38 µM (top of the series),inconclusive: -59.8% [inhibitor]
COC(=O)Nc1nc2ccc(C(=O)c3cccs3)cc2[nH]1,"activity change, negative = inhibition",[1]; at 17.2 µM (top of the series),inconclusive: 25.9% [activator]
same,"activity change, negative = inhibition",[1]; at 38 µM (top of the series),inconclusive: 34% [activator]
same,"activity change, negative = inhibition",[2]; at 17.2 µM (top of the series),active: -68.4%
same,"activity change, negative = inhibition",[2]; at 38 µM (top of the series),inconclusive: -32.2% [inhibitor]
CC(=O)O[C@]1(C(C)=O)CC[C@H]2[C@@H]3C[C@H](C)C4=CC(=O)CC[C@]4(C)[C@H]3CC[C@@]21C,"activity change, negative = inhibition",[1]; at 17.2 µM (top of the series),inactive: 15.9%
same,Potency,[6],inconclusive: 49.8 µM [partial curve]
same,Potency,[7],inconclusive: 62.6 µM [partial curve]
CC(C)(C)C(=O)OCOC(=O)[C@@H]1N2C(=O)[C@@H](NC(=O)[C@H](N)c3ccccc3)[C@H]2SC1(C)C,"activity change, negative = inhibition",[1]; at 17.2 µM (top of the series),inconclusive: -51.6% [inhibitor]
same,"activity change, negative = inhibition",[2]; at 17.2 µM (top of the series),inconclusive: -31.9% [inhibitor]
CN(C)CC/C=C1\c2ccccc2Sc2ccc(Cl)cc21,"activity change, negative = inhibition",[1]; at 17.2 µM (top of the series),inconclusive: 39.5% [activator]
same,"activity change, negative = inhibition",[2]; at 7.69 µM (top of the series),inconclusive: -73.5% [inhibitor]
same,"activity change, negative = inhibition",[2]; at 17.2 µM (top of the series),inconclusive: -44.3% [inhibitor]
C/C=C(/C(=C/C)c1ccc(O)cc1)c1ccc(O)cc1,"activity change, negative = inhibition",[1]; at 17.2 µM (top of the series),inconclusive: -58.9% [inhibitor]
same,"activity change, negative = inhibition",[2]; at 17.2 µM (top of the series),inconclusive: -115% [inhibitor]
COCC(=O)O[C@]1(CCN(C)CCCc2nc3ccccc3[nH]2)CCc2cc(F)ccc2[C@@H]1C(C)C,"activity change, negative = inhibition",[1]; at 38 µM (top of the series),inconclusive: 30.3% [activator]
C[n+]1cc2c3c(ccc2c2ccc4cc5c(cc4c21)OCO5)OCO3,"activity change, negative = inhibition",[1]; at 17.2 µM (top of the series),active: -119%
same,"activity change, negative = inhibition",[1]; at 38 µM (top of the series),active: -111%
same,"activity change, negative = inhibition",[2]; at 17.2 µM (top of the series),inconclusive: -68% [inhibitor]
same,"activity change, negative = inhibition",[2]; at 38 µM (top of the series),active: -48.1%
same,"activity, negative = inhibition",[3],inconclusive: -99.3% [inhibitor]
O=C(CCCN1CCC(O)(c2cccc(C(F)(F)F)c2)CC1)c1ccc(F)cc1,Potency,[4],inactive
CN(C)CCCOc1nn(Cc2ccccc2)c2ccccc12,"activity change, negative = inhibition",[1]; at 17.2 µM (top of the series),inactive: 10.8%
same,"activity change, negative = inhibition",[2]; at 17.2 µM (top of the series),inconclusive: -61.2% [inhibitor]
Oc1ccc(Cl)cc1Sc1cc(Cl)ccc1O,"activity change, negative = inhibition",[2]; at 7.69 µM (top of the series),inconclusive: -102% [inhibitor]
same,"activity, negative = inhibition",[3],inconclusive: -67% [inhibitor] [at 7.69 µM]
O=C1NCN(c2ccccc2)C12CCN(CCCC(c1ccc(F)cc1)c1ccc(F)cc1)CC2,"activity change, negative = inhibition",[2]; at 38 µM (top of the series),inconclusive: -108% [inhibitor]
CC/C(=C(\c1ccccc1)c1ccc(OCCN(C)C)cc1)c1ccccc1,"activity change, negative = inhibition",[2]; at 38 µM (top of the series),inconclusive: -89.6% [inhibitor]
C=C(CC)C(=O)c1ccc(OCC(=O)O)c(Cl)c1Cl,"activity, negative = inhibition",[3],inconclusive: -33.2% [inhibitor]
